Results on 46 compounds are retold here after the supplement of paper PMC4723716.

Values joined by “and” are separate entries in the source; they are usually repeats but may differ in a detail not shown here. Identical values can stand only once. ± gives the uncertainty stated by the source. The full ranking holds about 9,900 compounds; the median of “viability index relative to DMSO control” is about 1, and the lowest 2% start at about 0.85. The list shows a part of the results.

The assay has as its system Plasmodium falciparum NF54 stage V gametocytes. As to the kind of experiment: viability index relative to DMSO control (fraction); higher = less gametocyte killing. The settings on record: 2.5 µM, library set: Broad Institute DOS, incubation time: 72 h. As for the experimental part:
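Broad DOS informer set and blood-stage-active DOS compounds screened in duplicate at 2.5 µM against P. falciparum NF54 stage V gametocytes with the serum-free one-step SaLSSA (1536-well): 72 h at 37 °C under low oxygen, then saponin lysis and MitoTracker Red CMXRos staining, with high-content imaging. Viability index = viable-object count divided by the plate mean of DMSO wells (0 = killed, about 1 = inactive).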
In turn, `O=C(Nc1cccc(F)c1)N1C[C@@H]2N[C@H](C1)[C@@H]2c1ccc(-c2cncnc2)cc1` displayed a viability index of 1.044 ± 0.0046.

Consider `O=C1CCCCn2nncc2COC[C@H](Cc2ccccc2)N1`, for which the viability index came to 1.077 ± 0.002.

In turn, `CNC[C@H]1OCc2ccccc2-c2ccccc2C(=O)N([C@@H](C)CO)C[C@@H]1C` returned a viability index of 1.02 ± 0.093.

The compound `COc1cccc(C#Cc2ccc3c(c2)[C@H]2[C@H](CCN2C(=O)c2ccccc2F)[C@@H](CO)N3)c1` showed a viability index of 1.04 ± 0.06.

`O=C(C1CC1)N1C[C@@H]2[C@H](c3ccccc31)[C@H](CO)N2C(=O)c1ccccc1` had a viability index of 0.929 ± 0.048.

The compound `CN1c2ccc(-c3cccc(C#N)c3)cc2[C@@H]2[C@@H](CCN2C(=O)CN2CCOCC2)[C@@H]1CO` had a viability index of 1.08 ± 0.029.

`C[C@H]1CN([C@@H](C)CO)C(=O)c2cc(C3=CCCC3)cnc2O[C@H]1CN(C)C(=O)Nc1ccc(C(F)(F)F)cc1` displayed a viability index of 0.975 ± 0.063.

`COc1ccc(C#Cc2cnc3c(c2)C(=O)N([C@H](C)CO)C[C@H](C)[C@H](CN(C)Cc2cccc(C)c2)O3)cc1OC` had a viability index of 0.945 ± 0.097.

In turn, `C[C@H](CO)N1C[C@H](C)[C@@H](CN(C)C(=O)CCCN(C)C)OCCCC[C@H](C)Oc2ccc(NC(=O)Nc3ccc4c(c3)OCO4)cc2C1=O` yielded a viability index of 0.998 ± 0.067.

In the case of `C[C@H]1CCCCO[C@H](CN(C)S(=O)(=O)c2ccc(Cl)cc2)[C@@H](C)CN([C@@H](C)CO)C(=O)c2cc(NC(=O)Nc3ccc(C(F)(F)F)cc3)ccc2O1`, the viability index is 1.12 ± 0.13.

In turn, `Cc1ccc(S(=O)(=O)N(C)C[C@H]2Oc3cc(C#CC4CCCC4)ccc3S(=O)(=O)N([C@@H](C)CO)C[C@H]2C)cc1` returned a viability index of 0.713 ± 0.03.

On to `COCCNC(=O)[C@H]1[C@H](CO)[C@H]2Cn3c(cccc3=O)[C@@H]1N2S(=O)(=O)c1ccccc1C`, for which the viability index was found to be 1.01 ± 0.065.

The compound `O=C(O)C[C@@H]1C[C@H]2c3cc(NC(=O)Cc4ccncc4)ccc3O[C@H]2[C@@H](CO)O1` registered a viability index of 1.02 ± 0.021.

`COCCNC(=O)C[C@H]1CC[C@H]2[C@@H](COC[C@@H](O)CN2C(=O)c2cc(Cl)cc(Cl)c2)O1` yielded a viability index of 1.03 ± 0.091.

In turn, `O=C(CC(F)(F)F)N1C[C@@H]2[C@H](c3ccccc31)[C@H](CO)N2C(=O)C1CCCCC1` had a viability index of 1.02 ± 0.019.

Consider `COc1ccccc1S(=O)(=O)N1CC[C@@H]2[C@@H](CO)N(C)c3ccc(-c4cccc(C#N)c4)cc3[C@@H]21`, for which the viability index worked out at 0.99 ± 0.043.

The compound `O=C(Cc1cccnc1)N1CC(=O)N2[C@H](CO)[C@@H](c3ccc(C#CC4CCCCC4)cc3)[C@H]2C1` had a viability index of 1.04 ± 0.06.

For the compound `N#C[C@@H]1N[C@H](CO)[C@H]1c1ccc(-c2cccc(F)c2)cc1`, the viability index was 1.18 ± 0.088.

`COCC(=O)Nc1ccc2c(c1)C(=O)N(C)C[C@@H](OC)[C@H](C)CN(CCc1ccccc1)[C@H](C)CO2`: the viability index was 1.05 ± 0.042.

For `CC(C)NC(=O)N1CC[C@@H]2[C@H]1c1cc(-c3ccc(F)cc3)ccc1N(C)[C@@H]2CO`, the viability index came to 1.05 ± 0.033.

With `CC(C)NC(=O)N1[C@@H](CO)[C@@H](c2ccccc2)C12CN(C(=O)c1ccccn1)C2`, the viability index was determined as 1.18 ± 0.038.

In turn, `Cc1cccc(S(=O)(=O)N2CC[C@H]3[C@H](CO)Nc4ccc(-c5ccccc5F)cc4[C@H]32)c1` yielded a viability index of 1.08 ± 0.023.

As to `CC(C)NC(=O)Nc1ccc2c(c1)C(=O)N(C)[C@@H]1CC[C@H](CC(=O)NCc3ccc(F)cc3)O[C@@H]1CO2`, the viability index amounted to 1.11 ± 0.047.

The compound `O=C([C@H]1[C@H](CO)[C@H]2Cn3c(cccc3=O)[C@@H]1N2)N1CCc2ccccc2C1` displayed a viability index of 1.11 ± 0.065.

Consider `CCCNC(=O)N1[C@H](C#N)[C@H](c2ccccc2-c2ccc(OC)cc2)[C@@H]1CO`, for which the viability index came to 1.03 ± 0.1.

`CO[C@H]1CN(C)C(=O)c2cc(NC(=O)Nc3ccccc3F)ccc2OC[C@H](C)N(CCC(F)(F)F)C[C@@H]1C`: the viability index was determined as 1.05 ± 0.014.

`COCC#Cc1ccc([C@H]2[C@H](CO)N3CCCCN(Cc4cccnc4)C[C@@H]23)cc1`: the viability index came out at 0.966 ± 0.038.

With `C[C@H](CO)N1C[C@H](C)[C@@H](CN(C)C(=O)Nc2ccc(F)cc2)Oc2c(cccc2N(C)C)C1=O`, the viability index turned out to be 1 ± 0.058.

In the case of `O=C(C[C@H]1CC[C@H](NC(=O)CN2CCOCC2)[C@H](CO)O1)NC1CCC1`, the viability index worked out at 1.13 ± 0.077.

The compound `Cc1noc(C)c1S(=O)(=O)Nc1ccc2c(c1)C(=O)N([C@@H](C)CO)C[C@@H](C)[C@H](CN(C)C(=O)NC1CCCCC1)O2` showed a viability index of 1.07 ± 0.021.

`CO[C@H]1CN(C)C(=O)c2cc(NC(C)=O)ccc2OC[C@H](C)N(C(=O)Cc2ccccn2)C[C@@H]1C` gave a viability index of 1.09 ± 0.12.

Take `CNC[C@@H]1OCc2cn(nn2)CCCC(=O)N([C@@H](C)CO)C[C@@H]1C`: the viability index amounted to 0.993 ± 0.035.

The compound `COCC#Cc1ccc([C@@H]2[C@H](CO)N3C(=O)CN(C(=O)C4CCCCC4)C[C@@H]23)cc1` had a viability index of 1.087 ± 0.0032.

In the case of `CN1C(=O)c2cc(NC(=O)c3cccc(F)c3)ccc2OC[C@H]2O[C@@H](CC(=O)NCC3CCCCC3)CC[C@@H]21`, the viability index is 1.08 and 1.14.

Compound `N#C[C@H]1[C@H](c2ccccc2-c2ccccc2)[C@@H](CO)N1C(=O)Cc1ccncc1` gave a viability index of 1.06 ± 0.066.

Turning to `C/C=C/c1ccc([C@H]2[C@H]3CN(S(=O)(=O)c4ccccc4)CC(=O)N3[C@H]2CO)cc1`, the viability index came to 1.03 ± 0.034.

The compound `C[C@@H]1CN([C@@H](C)CO)S(=O)(=O)c2ccc(C#CC3(O)CCCC3)cc2O[C@H]1CN(C)C(=O)Nc1cccc(F)c1` displayed a viability index of 0.9968 ± 0.0021.

`C[C@@H]1CN([C@@H](C)CO)C(=O)CCCn2cc(nn2)CO[C@@H]1CN(C)C(=O)Nc1ccc2c(c1)OCO2` came in with a viability index of 1.05 ± 0.015.

Compound `CO[C@@H]1CC[C@@H]2CCOc3c(C#N)cccc3C(=O)N(C)C[C@@H](c3ccccc3)CC(=O)N(C)C[C@@H]1O2` displayed a viability index of 0.988 ± 0.12.

Regarding `O=C(C[C@@H]1CC[C@@H]2[C@H](COC[C@@H](O)CN2Cc2cc(F)ccc2F)O1)NCc1ccc(Oc2ccccc2)cc1`, the viability index is 0.979 ± 0.035.

Regarding `O=C(C1CCC1)N1CC(=O)N2[C@H](C1)[C@@H](c1ccc(Br)cc1)[C@@H]2CO`, the viability index is 1.064 ± 0.0019.

`CCc1sc(N2[C@H](C#N)[C@H](c3ccccc3-c3cccc(F)c3)[C@H]2CO)nc1C` returned a viability index of 1.1 ± 0.11.

`CNC[C@@H]1OCc2cnnn2CCCC(=O)N([C@@H](C)CO)C[C@H]1C` returned a viability index of 1.04 ± 0.019.

With `COCC#Cc1ccc([C@@H]2[C@H]3CN(Cc4cccnc4)CCCCN3[C@H]2CO)cc1`, the viability index was 1.03 ± 0.069.

On to `O=C(C[C@@H]1C[C@H]2c3cc(NC(=O)c4ccc5c(c4)OCO5)ccc3O[C@H]2[C@H](CO)O1)NCCN1CCCCC1`, for which the viability index was 1.08 ± 0.064.

`O=C(NCCCN1CCOCC1)[C@@H]1[C@@H](CO)[C@@H]2Cn3c(cccc3=O)[C@H]1N2C(=O)NC1CCCC1`: the viability index was found to be 1.01 ± 0.025.
